Measured values reported in PubChem BioAssay AID1963576 (National Center for Advancing Translational Sciences (NCATS), 2024).
Hit rate of the full screen: of about 46,000 compounds, about 60 (0.1%) were called active. Roughly 3% stayed inconclusive and do not appear here. Calls come from the whole dose curve; as a rule, active = well fitted inhibition curve with a large enough effect; inconclusive = small, poorly fitted or top-dose-only effect; inactive = no such curve, though single readings can be large or run the other way. The list shows a part of the results.

test: Primary qHTS assay for Inhibitors of ovarian cancer metastasis using an organotypic tumor microenvironment (TME) model.; note: nearly all actives have a fitted effect of over 65% in size;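 for activity change, negative = inhibition: plate controls were DMSO wells for no effect and tomatine positive control wells for full effect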; conditions: SKOV3ip1-GFP adhesion/invasion on 3D omental model, fluorescence; series mostly up to 45.8 µM; activity change, negative = inhibition: at the top concentration
Outline: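 Adhesion/invasion was scored as fixed GFP-labeled SKOV3ip1 cell counts (488/509 nm), normalized to DMSO and tomatine controls. Cancer cells in serum-free medium, with four compound doses (0.36-46 umol/L), sat 2 hr at RT then 16 hr at 37 C on a 48 hr fibroblast/mesothelial/ECM culture.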

outcome, inactive:
COCCn1c(C)cc(O)c(C(c2ccc(C)cc2)N2CCCCC2)c1=O (configuration not stated)
CCOc1ccc(CC(=O)NC2CC(=O)N(c3ccc(C)c(C)c3)C2)cc1 (configuration not stated)
Cc1ccccc1OCC(=O)N(Cc1ccc(N(C)C)cc1)CC1CCCO1 (configuration not stated)
Cn1cc(-c2cc3n(n2)CCC(=O)N3CC(=O)O)c2ccccc21
Cn1c(=O)c2nc(SCC(=O)Nc3cc(Cl)cc(Cl)c3)n(C)c2n(C)c1=O
COc1ccc(Cl)cc1NC(=O)c1cc2ccc3ccc(C)[nH]c3c2n1
COc1cccc(C(=O)Nc2ccccc2C(=O)OCc2cc(=O)n3c(C)csc3n2)c1
Cc1nn(-c2ccc(F)cc2)c(-n2cccc2)c1C(=O)NCCCN1CCN(c2ccccc2F)CC1
CCOC(=O)c1ccccc1NC(=O)Nc1cc2c(cc1N1CCCCC1)n(C)c(=O)n2C
COc1ccc(C(=O)NCCn2cc(SCC(=O)NCCc3ccc(OC)c(OC)c3)c3ccccc32)cc1
CS(=O)(=O)N1CCc2cc(C(=O)NCCc3ccccc3)ccc21
Cc1nc2ccccc2c(=O)n1-c1ccc(NC(=O)c2ccc([N+](=O)[O-])cc2)cc1
COc1ccc(-c2[nH]nc3nc(-c4cc(OC)c(OC)c(OC)c4)cc(C(=O)O)c23)cc1
CCCS(=O)(=O)N1CCCC(C(=O)NCCCOC)C1 (configuration not stated)
Cc1ccccc1CNC(=O)C(=O)NCC(c1ccco1)S(=O)(=O)c1ccccc1 (configuration not stated)
CCc1cccc(NC(=O)CCS(=O)(=O)c2cc(Br)cc3c2N(C(C)=O)CC3)c1
Cc1cc(C)cc(-n2c(SCC(N)=O)nc3c(oc4ccccc43)c2=O)c1
CCOc1ccccc1NC(=O)N1CCN(Cc2nc3ccc(C)cc3o2)CC1
Cc1nn(S(=O)(=O)c2ccc(F)cc2)c(C)c1S(=O)(=O)N1CCC(C)CC1

Activity change, negative = inhibition, inactive:
C#CC(C)(CC)NC(=O)c1cc2c(n(-c3ccc(Cl)cc3)c1=O)CC(C)(C)CC2=O (configuration not stated) -6.26%
COc1ccccc1N(CC(=O)Nc1ccc(C)c(Cl)c1)S(=O)(=O)c1ccc(C)cc1 8.83%
CC1(C)Cc2c(sc(NC(=S)NC(=O)c3ccccc3)c2C(=O)O)CO1 0.418%
O=C(C1CCC1)N1CCCc2cc(S(=O)(=O)Nc3ccc(F)cc3)ccc21 1.27%
CCN1CCN(c2c(S(=O)(=O)c3ccccc3)cnc3ccc(Cl)cc23)CC1 -5.31%
Cc1cccc(CNC(=O)CCCN2C(=O)CCn3nc(-c4cn(C)c5ccccc45)cc32)c1 -7.13%
OCc1nc2ccccc2n1Cc1c(F)cccc1Cl 1.19%
CC(C)(C)OC(=O)N1CCC(c2c(C(=O)N3CCN(c4ccc(Cl)cc4)CC3)cnn2-c2ccc(F)cc2F)CC1 10.8%
Cc1ccccc1OCC(=O)Nc1ccc2nc(SCC(=O)N(C)c3ccccc3)sc2c1 -12%
COc1ccccc1CNC(=O)CCCn1nc(C)c2sc3ccccc3c2c1=O -10.1%
COCCCn1c(=N)c(S(=O)(=O)c2ccccc2)cc2c(=O)n3cc(C)ccc3nc21 9.9%
COc1cccc(NC(=O)C2CCCN(c3nnc(-n4c(C)ccc4C)s3)C2)c1 (configuration not stated) -23.4%
Cc1ccc(OCC(=O)OCc2cc(=O)n3nc(-c4cccs4)sc3n2)cc1 -9.99%
COc1ccc(CNc2nc(-c3ccco3)nn2C(=O)c2ccccc2Cl)cc1 -1.02%
COc1cc(NC(=O)c2cc(-c3cccs3)on2)c(OC)cc1Cl 9.88%
COc1ccc(-c2cc(C(=O)Nc3ccc4c(c3)OCO4)no2)cc1OC -14.1%
Cc1ccc(Cn2c(CNS(=O)(=O)c3ccc(C(C)(C)C)cc3)nc3cccnc32)cc1 8.55%
Cc1nc2sccn2c(=O)c1S(=O)(=O)NCc1ccc(F)cc1 16.4%
CCc1ccc(NC(=O)CSc2c(C)cnc3c2c(=O)n(C)c(=O)n3C)cc1 -19.9%
C[C@H](Cc1ccc(O)c(O)c1)[C@@H](C)Cc1ccc(O)c(O)c1 -15.3%
O=C(c1cc(-c2ccc(Cl)cc2)on1)N(Cc1cccc(F)c1)Cc1ccco1 10.5%
Cn1cc(S(=O)(=O)c2ccc(Cl)cc2)c(=O)c2cc(F)c(N3CCCC3)cc21 -2.05%
O=C(COc1ccccc1Cl)OCc1cc(=O)n2nc(C3CC3)sc2n1 -9.41%
COc1ccccc1CNc1nc2ccccc2c2nc(-c3cccnc3)nn12 -6.76%
Cc1c(NC(=O)c2cc(-c3ccc(O)cc3)on2)c(=O)n(-c2ccccc2)n1C -0.259%
COc1ccc(NC(=O)C(=O)NCCc2ccc(OC)c(OC)c2)c(OC)c1 -4.96%
COC(=O)c1ccc(NC(=O)CSc2cn(CC(=O)N3CCCCCC3)c3ccccc23)cc1 3.68%
COc1ccc(-c2cc3nc(-c4ccc(Br)cc4)cc(C(F)(F)F)n3n2)cc1 4.96%
COc1ccc(CCNC(=O)c2cccc(-n3c(C)nc4cccnc43)c2)cc1OC 7.77%
COc1ccc(CNC(=O)C2CCN(C(=O)c3ccc(-n4ccc5ccccc54)s3)CC2)cc1 -3.71%
COCCCNC(=O)c1cnn(-c2ccccc2Cl)c1C1CCN(C(=O)OC(C)(C)C)CC1 -9.83%
COC(=O)c1cc(C)nc2c1c(=O)nc(SCc1cccc(C)c1)n2C1CC1 -11.1%
COc1ccc(NC(=O)Cn2c(C)cc3ccccc3c2=O)c(OC)c1 0.589%
Cc1nn(-c2nc(-c3ccc(F)cc3)cc(C(F)(F)F)n2)c(C)c1Br -8.77%
CC1=Nc2cc(C(=O)NC3CCCC3)ccc2Sc2ccc(C)cc21 9.35%
CSc1ccc(CCNC(=O)CCCn2nc(C)c3sc4ccccc4c3c2=O)cc1 -22.4%
Cc1cccc(NC(=O)CN2C(=O)c3cccnc3Oc3ccc(Cl)cc32)c1C 3.91%
CCc1cccc(CC)c1NC(=O)c1ccc2c(c1)CCN2S(=O)(=O)c1ccccc1 2.91%
COc1ccccc1OCC(=O)N(Cc1ccc(Cl)cc1)CC1CCCO1 (configuration not stated) -9.97%
CC(=O)c1ccc(NC(=O)CC2Nc3cccc4cccc(c34)NC2=O)cc1 (configuration not stated) -21.4%
CCOc1ccc(Oc2nc(NCC(C)C)nc(NC(C)(C)C)n2)nn1 6.31%
COc1cccc(NC(=O)CCc2c(C)nc3c4cccnc4nn3c2C)c1 2.94%
O=C(Nc1ccc(N2CCC(c3ccccc3)C2)c(C(=O)O)c1)c1ccc(Cl)cc1 (configuration not stated) -7.28%
CCOc1ccc(CNC(=O)CCS(=O)(=O)c2cc3c(cc2Cl)NC(=O)CO3)cc1OC 3.88%
Cc1n[nH]c(C)c1S(=O)(=O)N(CC(=O)NC(C)c1ccccc1)c1ccc(C(C)C)cc1 (configuration not stated) 32.4%
Cc1ccc(NC(=O)Cn2c(=O)c3cc(Cl)ccc3n3nncc23)cc1 -15.5%
COc1cccc(NC(=O)Cn2cnc3c(nc4n3CCCCC4)c2=O)c1 14.1%
COCCCNC(=O)CN1C(=O)COc2ccc(S(=O)(=O)N3CCCC3)cc21 -7.69%
COC(=O)CS(=O)(=O)c1nc2ccccc2nc1N1CCCCC1 3.69%
CC(C)CCNC(=O)Nc1ccc2c(c1)N(C)C(=O)c1ccccc1S2 -14.6%
COCCCNc1ncnc2onc(-c3ccc(F)cc3)c12 17.7%
Cc1ccc(-c2cc(C(=O)N3CCN(S(=O)(=O)c4ccc(Br)cc4)CC3)[nH]n2)cc1C -28.6%
CC1=C(c2ccc(C)c(C)c2)S(=O)(=O)N=C1N1CCC(C(=O)NCCc2ccco2)CC1 -5.83%
CCOc1ccc(NCc2cccn2-c2nnc(N3CCC(C(=O)NCCc4ccc(OC)c(OC)c4)CC3)s2)cc1 -0.982%
COc1ccc(N2CCN(C(=O)CCc3c(C)nc4cc(-c5ccc(Cl)cc5)nn4c3C)CC2)cc1 15.7%
CCC(=O)NCC(c1ccc2c(c1)OCO2)N1CCN(c2ccccc2)CC1 (configuration not stated) -11.6%
Cc1ccc2[nH]c(CSc3nnc(NC(=O)c4ccccc4C)s3)cc(=O)c2c1 -10.8%
Cc1ccc(CCNC(=O)c2cn(C)c3ccc(S(=O)(=O)N4CCCCC4)cc3c2=O)cc1 19.9%
COc1c(Cl)cc2c([nH]c3cnccc32)c1NC(=O)c1cccnc1C -0.837%
COc1ccc(C(=O)Nc2nnc(S(=O)(=O)N(C)c3ccc(Cl)cc3)s2)cc1OC -2.42%
COc1cc(-c2nc3ncccn3c2Nc2ccc(C)cc2C)ccc1O -16.1%
O=C(CSc1nc2ccccc2nc1Cc1ccccc1)N1CCCCC1 -0.955%
O=C(NCc1ccccc1Cl)c1cc2ccccc2o1 3.29%
COc1cc(OC)cc(C(=O)Nc2ccc3c(c2)N(C2CCCC2)C(=O)c2ccccc2S3)c1 -0.457%
CCOc1ccccc1NC(=O)Cn1cnc2sc(C)c(S(=O)(=O)N3CCC(C)CC3)c2c1=O 5.85%
COc1cccc(Nc2c3c(nc4nncn24)CCC3)c1 -3.83%
CCCCOc1cccc(C(=O)Nc2ccc3oc(-c4cccnc4)nc3c2)c1 4.61%
Cc1ccc(C)c(N2CCN(S(=O)(=O)c3c(C)nc4sccn4c3=O)CC2)c1 6.82%
CCOc1ccc(-c2nnc(SCC(=O)NCc3ccccc3)nc2-c2ccc(OCC)c(OC)c2)cc1OC 33.5%
CCc1ccc(C2CC(=O)Nc3c2c(C)nn3-c2nc(C)cc(C)n2)cc1 (configuration not stated) 3.47%
COc1cccc2cc(C(=O)NCCc3c(C)[nH]c4ccc(Br)cc34)c(=O)oc12 -8.44%
COc1ccc(NC(=O)C2CCCN(S(=O)(=O)c3ccc4c(c3)CCCC(=O)N4)C2)c(OC)c1 (configuration not stated) 5.24%
CCc1ccc(N(CC)C(=O)Cn2c(=O)oc3ccccc32)cc1 2.14%
Cc1nc2scc(C)n2c(=O)c1S(=O)(=O)Nc1ccc(N2CCOCC2)cc1 2.35%
Cc1ccc(-n2ncc(C(=O)Nc3ccc4c(c3)OCO4)c2C2CCN(C(=O)OC(C)(C)C)CC2)cc1 -0.0584%
Cc1ccnc(NS(=O)(=O)c2cc(-c3cc(C)no3)ccc2C)c1 -4.77%
CCN(C(=O)Cn1c(=O)oc2cc(Cl)ccc21)c1cccc(C(F)(F)F)c1 4.28%
Cc1ccc(CCNC(=O)C2CCN(c3nnc(-n4cccc4CNc4ccc(C)cc4)s3)CC2)cc1 -5.39%
